Results are given in words; binding and its absence hold for the method and conditions named. In cells and extracts the contact can be indirect. Some entries that bind do so weakly or less than the wild type. Each block holds one substance with its values, some of them ahead of it.
Assays:
[1] = target: OVOL2 (OVO-like zinc finger 2), endogenous (human (endogenous in MCF7, MDA-MB-231, ZR75-1)) (UniProt Q9BRP0); experiment: co-IP; endogenous proteins; MCF7, MDA-MB-231 or ZR75-1 lysates precipitated with anti-OVOL2 or normal IgG, immunoblot; lysis buffer 50 mM Tris pH 8.0, 500 mM NaCl, 0.5% Nonidet P-40, 1 mM DTT; also with or without DNase I and after NCoR shRNA
His-tagged OVOL2 protein = His-tagged OVOL2 protein (UniProt Q9BRP0); experiment: pull-down; His pull-down: purified His-fusion protein bound to nickel beads incubated with in vitro translated protein for 4 h at 4 °C; bound proteins by immunoblot; only the target purified
[2] = target: OVOL2, exogenous (transfected; tag not given) (UniProt Q9BRP0); experiment: co-IP; exogenous (transfected) proteins; anti-FLAG or Myc-agarose beads 4 h at 4 °C, immunoblot; lysis buffer 50 mM Tris pH 8.0, 500 mM NaCl, 0.5% Nonidet P-40, 1 mM DTT; Figure 6I: MCF7 or ZR75-1 with MYC-MDM2 plus FLAG-OVOL2, with or without 10 µM nutlin-3, anti-FLAG IP
[3] = target: FLAG-tagged OVOL2 (OVO-like zinc finger 2) (UniProt Q9BRP0); experiment: as above
[4] = target: OVOL2, exogenous (transfected; tag not given) (UniProt Q9BRP0); experiment: co-IP; OVOL2–MDM2 co-IP in cells with increasing p53 overexpression (Figure S7J) or with co-expressed WT p53 or p53 mutants (Figure S7K)
[5] = target: T1, OVOL2 (241–275) containing the C-terminal fragment (UniProt Q9BRP0); experiment: pull-down; His pull-down: purified His-fusion protein bound to nickel beads incubated with in vitro translated protein for 4 h at 4 °C; bound proteins by immunoblot; only the target purified
T1 sequence: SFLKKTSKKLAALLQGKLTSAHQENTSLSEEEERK

By UniProt entry, the sequences of proteins in these tests, tags left out.
UniProt Q00987: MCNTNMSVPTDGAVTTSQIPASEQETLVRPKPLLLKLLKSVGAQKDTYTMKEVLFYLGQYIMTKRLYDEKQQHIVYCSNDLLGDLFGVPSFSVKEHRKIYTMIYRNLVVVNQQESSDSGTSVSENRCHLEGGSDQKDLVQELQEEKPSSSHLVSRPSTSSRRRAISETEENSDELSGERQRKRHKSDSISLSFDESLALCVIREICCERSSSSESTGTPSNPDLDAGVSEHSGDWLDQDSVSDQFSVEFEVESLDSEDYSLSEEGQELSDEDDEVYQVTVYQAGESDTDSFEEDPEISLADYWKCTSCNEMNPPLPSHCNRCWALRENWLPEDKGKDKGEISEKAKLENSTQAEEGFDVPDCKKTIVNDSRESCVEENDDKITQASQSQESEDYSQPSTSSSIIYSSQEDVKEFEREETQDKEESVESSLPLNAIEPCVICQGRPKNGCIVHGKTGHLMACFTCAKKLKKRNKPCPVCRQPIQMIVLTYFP
UniProt Q13547: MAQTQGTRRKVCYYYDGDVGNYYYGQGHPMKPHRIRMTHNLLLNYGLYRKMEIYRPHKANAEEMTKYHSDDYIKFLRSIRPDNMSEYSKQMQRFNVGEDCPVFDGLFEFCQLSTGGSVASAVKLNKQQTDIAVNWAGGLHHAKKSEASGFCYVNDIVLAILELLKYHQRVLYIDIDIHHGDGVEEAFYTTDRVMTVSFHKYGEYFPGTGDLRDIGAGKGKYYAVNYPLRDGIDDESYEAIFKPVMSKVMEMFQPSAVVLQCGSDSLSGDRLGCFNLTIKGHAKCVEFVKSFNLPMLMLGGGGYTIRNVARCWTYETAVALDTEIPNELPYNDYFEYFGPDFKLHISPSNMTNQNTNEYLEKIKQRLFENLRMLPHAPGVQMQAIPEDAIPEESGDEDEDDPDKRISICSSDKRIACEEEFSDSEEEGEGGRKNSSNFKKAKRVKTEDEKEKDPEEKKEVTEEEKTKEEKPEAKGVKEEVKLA
UniProt O75376: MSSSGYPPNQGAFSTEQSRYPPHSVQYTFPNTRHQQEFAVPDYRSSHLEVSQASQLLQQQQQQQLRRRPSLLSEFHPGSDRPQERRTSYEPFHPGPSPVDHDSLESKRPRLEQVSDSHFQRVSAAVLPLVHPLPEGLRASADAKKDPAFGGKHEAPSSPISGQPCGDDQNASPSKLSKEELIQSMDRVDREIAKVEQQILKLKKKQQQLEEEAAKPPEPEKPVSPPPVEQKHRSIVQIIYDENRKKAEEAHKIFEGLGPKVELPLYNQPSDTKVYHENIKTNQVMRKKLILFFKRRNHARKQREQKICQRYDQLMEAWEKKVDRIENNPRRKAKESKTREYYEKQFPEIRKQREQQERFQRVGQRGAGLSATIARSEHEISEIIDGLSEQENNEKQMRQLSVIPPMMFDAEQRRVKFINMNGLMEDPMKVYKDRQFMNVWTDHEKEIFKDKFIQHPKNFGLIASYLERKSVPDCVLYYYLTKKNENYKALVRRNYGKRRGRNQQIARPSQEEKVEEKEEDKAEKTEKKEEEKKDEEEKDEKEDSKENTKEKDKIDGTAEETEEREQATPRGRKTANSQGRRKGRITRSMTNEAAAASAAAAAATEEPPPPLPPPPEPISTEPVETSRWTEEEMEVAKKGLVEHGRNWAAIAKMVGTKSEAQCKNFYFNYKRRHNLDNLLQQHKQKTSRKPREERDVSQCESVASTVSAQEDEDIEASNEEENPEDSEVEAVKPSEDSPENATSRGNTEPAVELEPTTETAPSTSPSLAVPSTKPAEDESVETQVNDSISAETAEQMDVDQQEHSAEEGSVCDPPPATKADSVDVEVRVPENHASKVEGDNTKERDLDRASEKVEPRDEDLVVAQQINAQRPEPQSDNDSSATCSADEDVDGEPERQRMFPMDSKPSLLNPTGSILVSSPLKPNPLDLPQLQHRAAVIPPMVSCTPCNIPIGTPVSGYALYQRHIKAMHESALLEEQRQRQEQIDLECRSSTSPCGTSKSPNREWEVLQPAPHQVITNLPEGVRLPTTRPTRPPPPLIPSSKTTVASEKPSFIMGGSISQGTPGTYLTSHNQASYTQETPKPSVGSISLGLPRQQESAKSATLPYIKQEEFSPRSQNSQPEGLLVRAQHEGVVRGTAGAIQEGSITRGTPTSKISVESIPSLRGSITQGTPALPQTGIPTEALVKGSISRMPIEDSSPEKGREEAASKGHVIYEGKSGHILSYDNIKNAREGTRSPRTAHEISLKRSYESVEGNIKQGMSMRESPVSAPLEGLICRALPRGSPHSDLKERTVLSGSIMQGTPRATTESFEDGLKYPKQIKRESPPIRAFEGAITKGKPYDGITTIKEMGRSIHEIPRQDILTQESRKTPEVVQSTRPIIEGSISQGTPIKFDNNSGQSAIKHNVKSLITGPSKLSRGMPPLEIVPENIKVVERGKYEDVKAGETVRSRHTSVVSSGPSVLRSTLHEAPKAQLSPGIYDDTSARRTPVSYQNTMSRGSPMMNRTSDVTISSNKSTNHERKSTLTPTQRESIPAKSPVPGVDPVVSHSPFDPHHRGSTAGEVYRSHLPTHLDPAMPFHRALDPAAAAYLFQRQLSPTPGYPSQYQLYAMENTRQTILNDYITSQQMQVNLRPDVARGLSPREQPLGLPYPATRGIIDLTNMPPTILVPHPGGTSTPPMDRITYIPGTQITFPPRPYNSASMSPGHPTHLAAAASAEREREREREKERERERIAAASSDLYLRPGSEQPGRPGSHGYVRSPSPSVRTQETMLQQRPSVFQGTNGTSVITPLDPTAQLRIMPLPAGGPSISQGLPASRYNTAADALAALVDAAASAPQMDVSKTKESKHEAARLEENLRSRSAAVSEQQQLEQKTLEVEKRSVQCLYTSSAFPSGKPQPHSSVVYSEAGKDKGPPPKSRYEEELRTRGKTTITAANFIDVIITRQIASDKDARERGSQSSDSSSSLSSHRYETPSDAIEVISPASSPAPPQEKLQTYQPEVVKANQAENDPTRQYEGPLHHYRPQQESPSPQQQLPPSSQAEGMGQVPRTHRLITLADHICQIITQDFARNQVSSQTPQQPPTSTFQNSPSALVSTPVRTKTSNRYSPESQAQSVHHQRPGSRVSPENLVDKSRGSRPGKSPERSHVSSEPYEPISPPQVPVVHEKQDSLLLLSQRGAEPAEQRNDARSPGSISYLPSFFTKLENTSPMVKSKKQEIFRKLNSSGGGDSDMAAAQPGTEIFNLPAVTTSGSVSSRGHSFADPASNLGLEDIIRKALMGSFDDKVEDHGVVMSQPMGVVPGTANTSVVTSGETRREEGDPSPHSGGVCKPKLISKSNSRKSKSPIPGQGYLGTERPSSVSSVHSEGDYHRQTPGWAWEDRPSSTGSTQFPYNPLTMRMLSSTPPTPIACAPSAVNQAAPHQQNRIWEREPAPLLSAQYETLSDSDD
UniProt O15379: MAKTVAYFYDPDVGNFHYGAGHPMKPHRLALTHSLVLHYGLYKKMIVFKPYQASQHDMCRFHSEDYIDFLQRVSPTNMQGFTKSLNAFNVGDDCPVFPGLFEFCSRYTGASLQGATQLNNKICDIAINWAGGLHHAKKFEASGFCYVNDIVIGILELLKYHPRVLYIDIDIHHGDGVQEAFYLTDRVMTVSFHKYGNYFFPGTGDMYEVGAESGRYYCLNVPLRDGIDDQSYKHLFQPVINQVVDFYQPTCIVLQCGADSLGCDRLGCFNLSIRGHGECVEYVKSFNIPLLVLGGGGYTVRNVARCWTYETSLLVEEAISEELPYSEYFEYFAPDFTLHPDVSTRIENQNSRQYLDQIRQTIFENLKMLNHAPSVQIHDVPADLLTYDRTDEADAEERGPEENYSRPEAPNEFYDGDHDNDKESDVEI

[6] = target: T2, OVOL2 (1–100) containing the SNAG (snail/gfi-1) domain (UniProt Q9BRP0); experiment: as above
T2 sequence: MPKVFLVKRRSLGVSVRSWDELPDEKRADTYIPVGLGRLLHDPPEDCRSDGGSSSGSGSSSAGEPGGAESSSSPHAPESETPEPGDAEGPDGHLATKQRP

[7] = target: OVOL2 (101–240) containing four C2H2 zinc finger domains (UniProt Q9BRP0); experiment: as above
[8] = target: MDM2 (mouse double minute 2 homolog), endogenous (human (endogenous in MCF7, ZR75-1)) (UniProt Q00987); experiment: co-IP; endogenous proteins; MCF-7 or ZR75-1 lysates (p53 shRNA or control shRNA, normoxia or 1% O2) precipitated with anti-MDM2 or normal IgG, immunoblot
[9] = target: OVOL2, exogenous (transfected; tag not given) (UniProt Q9BRP0); experiment: co-IP; Co-IP combined with Re-IP: MDA-MB-231 cells transfected with indicated plasmids, anti-FLAG agarose, elution with FLAG peptide, re-immunoprecipitation with anti-MYC or normal IgG, immunoblot

Substance: p53, exogenous wild type (transfected; tag not told in the text) (from UniProt P04637 1-393)
binding [2]: no binding

Substance: in vitro translated HDAC1 (from UniProt Q13547 1-482) (enzyme)
binding (His-tagged OVOL2 protein): no binding

Substance: in vitro translated NCoR (from UniProt O75376 1-2440)
binding [5]: no binding | binding [6]: no binding | binding [7]: binds | binding (His-tagged OVOL2 protein): binds

Substance: OVOL2 (OVO-like zinc finger 2), endogenous (from UniProt Q9BRP0 1-275)
binding [8]: binds

Substance: in vitro translated MDM2 (from UniProt Q00987 1-491) (enzyme)
binding (His-tagged OVOL2 protein): binds

Substance: NCoR (nuclear receptor co-repressor), exogenous (transfected; tag not told in the text) (from UniProt O75376 1-2440)
binding [2]: binds | binding [9]: binds

Substance: in vitro translated HDAC3 (from UniProt O15379 1-428) (enzyme)
binding (His-tagged OVOL2 protein): no binding

Second part, the substance after the results:

binding [1]: no binding
Substance: p53 tumor suppressor protein, endogenous (from UniProt P04637 1-393)

binding (His-tagged OVOL2 protein): no binding
Substance: in vitro translated p53 (from UniProt P04637 1-393)

binding [3]: binds | binding [2]: binds | binding [4]: binds
Substance: MYC-tagged MDM2 (from UniProt Q00987 1-491) (enzyme)

binding [1]: binds
Substance: MDM2 (mouse double minute 2 homolog), endogenous (from UniProt Q00987 1-491) (enzyme)

binding [1]: binds
Substance: NCoR (nuclear receptor co-repressor), endogenous (from UniProt O75376 1-2440)
